From PubChem BioAssay AID504332 (National Center for Advancing Translational Sciences (NCATS), 2011)
Hit rate of the full screen: of about 350,000 compounds, about 31,000 (8.9%) were called active. The inconclusive results got no clear call from the source; some entries with a clear call stand among them for comparison. The call rests on the fitted dose curve; in most records, active means well fitted inhibition curve with a large enough effect; inconclusive means small, poorly fitted or top-dose-only effect; inactive means no such curve, though single readings can be large or run the other way. Where the call is inconclusive, the potency comes from a doubtful curve fit.

target: Histone-lysine N-methyltransferase EHMT2 (Homo sapiens) (UniProt Q96KQ7); assay: qHTS Assay for Inhibitors of Histone Lysine Methyltransferase G9a; conditions: G9a H3K9 monomethylation, AlphaScreen, 2 h; activity, negative = inhibition: at 59 µM (top of the series) unless noted; further: nearly all actives have a fitted effect of over 75% in size
UniProt Q96KQ7, sequence (Q96KQ7 whole entry, looked up): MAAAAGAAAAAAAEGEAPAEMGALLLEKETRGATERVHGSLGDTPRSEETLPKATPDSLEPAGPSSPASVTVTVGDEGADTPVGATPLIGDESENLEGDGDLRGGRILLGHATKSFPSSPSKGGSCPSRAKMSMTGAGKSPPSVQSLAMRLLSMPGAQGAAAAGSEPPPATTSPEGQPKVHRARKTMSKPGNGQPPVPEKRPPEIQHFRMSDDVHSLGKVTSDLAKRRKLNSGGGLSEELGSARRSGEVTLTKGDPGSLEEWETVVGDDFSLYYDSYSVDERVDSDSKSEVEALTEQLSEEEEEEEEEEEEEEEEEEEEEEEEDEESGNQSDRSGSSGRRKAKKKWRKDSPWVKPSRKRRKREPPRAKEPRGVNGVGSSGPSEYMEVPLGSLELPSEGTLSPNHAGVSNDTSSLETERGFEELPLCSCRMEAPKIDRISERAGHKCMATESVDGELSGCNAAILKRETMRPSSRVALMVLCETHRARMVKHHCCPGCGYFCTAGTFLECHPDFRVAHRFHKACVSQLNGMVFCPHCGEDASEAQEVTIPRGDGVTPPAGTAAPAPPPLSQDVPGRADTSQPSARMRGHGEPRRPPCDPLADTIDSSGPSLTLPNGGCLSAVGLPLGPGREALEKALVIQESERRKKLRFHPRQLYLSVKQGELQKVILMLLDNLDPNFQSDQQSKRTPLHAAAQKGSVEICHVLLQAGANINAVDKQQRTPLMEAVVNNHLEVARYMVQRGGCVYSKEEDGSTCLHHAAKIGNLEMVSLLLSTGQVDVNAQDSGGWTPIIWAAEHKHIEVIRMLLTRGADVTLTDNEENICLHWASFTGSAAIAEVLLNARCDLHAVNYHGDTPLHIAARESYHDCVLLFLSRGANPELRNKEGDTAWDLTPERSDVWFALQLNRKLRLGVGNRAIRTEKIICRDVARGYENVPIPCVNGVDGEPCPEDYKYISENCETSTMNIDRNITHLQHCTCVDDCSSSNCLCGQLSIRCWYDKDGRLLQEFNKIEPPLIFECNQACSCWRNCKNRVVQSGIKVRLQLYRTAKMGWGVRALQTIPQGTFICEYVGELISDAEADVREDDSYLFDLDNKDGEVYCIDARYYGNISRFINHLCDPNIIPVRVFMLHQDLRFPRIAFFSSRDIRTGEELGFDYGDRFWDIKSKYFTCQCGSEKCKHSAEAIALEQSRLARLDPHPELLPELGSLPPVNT
Procedure, shortened: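 Enzyme 20 nM + cpd, 15 min RT; add b-H3K9 pep 500 nM / SAM 20 uM; 2 h RT; anti-H3K9me1 Ab 0.5 ug/mL + SA donor / anti-rabbit acceptor beads 20 ug/mL each, 10 min; AlphaScreen read.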
On the % scale 0 is the no-effect control and ±100 the full control effect; potency means the concentration at half of the fitted maximal effect; tags describe the fitted curve by direction and shape.

Row | SMILES | Potency | activity, negative = inhibition
1 | COC(=O)CCC(=O)c1oc2ccc(OC)cc2c1N | inconclusive: 89.1 µM [inhibitor, single point] | 
2 | CSc1ccccc1C(=O)Nc1ccc(S(=O)(=O)NC2=NCCCCC2)cc1 | inconclusive: 6.31 µM [inhibitor, single point] | 
3 | CCOc1ccc(CSC(=N)N)cc1[N+](=O)[O-] | inconclusive: 31.6 µM [inhibitor, single point] | 
4 | Cc1sc2ncnc(SCC(=O)NC(=O)c3cccn3C)c2c1C | active: 31.6 µM | 
5 | CCSC1=N/C(=C\c2ccc(C(=O)O)cc2)C(=O)S1 | inconclusive: 39.8 µM [inhibitor, single point] | 
6 | COc1ccc2c(N)c(C(=O)NN)[nH]c2c1 | inconclusive: 50.1 µM [inhibitor, partial curve] | 
7 | Cc1ccc(NC(=O)CSCC#N)cc1 | active: 50.1 µM | 
8 | CCCCC(=O)Nc1cc(C)c(NC(=O)c2cccs2)cn1 | inconclusive: 35.5 µM [inhibitor, partial curve] | 
9 | Cc1nc(-c2ccc(S(=O)(=O)N3CCN(c4ccccc4)CC3)cc2)co1 | inactive | 
10 | COc1ccc(S(=O)(=O)Nc2c(C(=O)O)[nH]c3ccc(OC)cc23)c(OC)c1 | active: 2.24 µM | 
11 | CC(=O)Nc1ccc(S(=O)(=O)Nc2nc3ccccc3nc2Nc2ccc(O)cc2)cc1 | inconclusive: 44.7 µM [inhibitor, partial curve] | 
12 | O=C(NC(Cc1ccccc1)C(=O)O)/C(=C\c1ccco1)NC(=O)c1ccccc1 (stereo unspecified) | inconclusive: 8.91 µM [inhibitor, partial curve, poor fit] | 
13 | CCOc1ccc(NCc2cccn2-c2nnc(N3CCC(C(=O)NCCc4ccc(OCC)c(OCC)c4)CC3)s2)cc1 | inconclusive: 22.4 µM [inhibitor, single point] | 
14 | CC(C)N(CCNCc1nnc(-c2ccccc2)o1)C(C)C | inconclusive: 39.8 µM [inhibitor, partial curve, poor fit] | 
15 | COc1ccccc1-c1nnc2n1N=C(c1ccc(O)c(O)c1)CS2 | inconclusive: 7.08 µM [inhibitor, single point] | 
16 | COCCNC(=O)[C@H](C)[C@H]1C[C@]1(C)[C@H](NC(=O)OCc1ccccc1)c1ccccc1 | inconclusive: 89.1 µM [inhibitor, single point] | 
17 | COc1ccc(C2=Nc3ccc(C)cc3C(c3ccccc3)N2CC(=O)NN)cc1 (stereo unspecified) | inconclusive: 35.5 µM [inhibitor, partial curve, poor fit] | 
18 | O=C(CCc1ccc(S(=O)(=O)NCCc2ccccc2)cc1)NCc1ccco1 | inconclusive: 20 µM [inhibitor, single point] | 
19 | CN(C)c1ccc(NC(=O)CN2CCN(c3ccc(F)cc3)CC2)cc1 | inconclusive: 28.2 µM [inhibitor, full curve] | 
20 | CCCC(=O)Nc1ccc2nc(SCCOc3ccccc3)sc2c1 | inactive | 
21 | CCOc1ccc(/C(O)=C2/C(=O)C(=O)N(c3ccccn3)C2c2ccc(Cl)cc2)c(C)c1 (stereo unspecified) | inconclusive: 89.1 µM [inhibitor, single point] | 
22 | COc1ccc2c(c1O)Cc1ccccc1C2=O | inconclusive: 7.08 µM [inhibitor, partial curve, poor fit] | 

Row | SMILES | Potency | activity, negative = inhibition
23 | O=C(Nc1ccc(-c2nnc(-c3ccccc3)o2)cc1)C(F)(F)F | inconclusive: 79.4 µM [inhibitor, single point] | 
24 | COc1ccccc1-c1noc(CCC(=O)Nc2cccc(C(F)(F)F)c2)n1 | inconclusive: 39.8 µM [inhibitor, single point] | 
25 | CSc1nnc(-c2cc(-c3ccc(C)cc3)nc3ccccc23)o1 | active: 7.94 µM | 
26 | CC(c1ccco1)N(C(=O)c1cccc(Br)c1)c1ccccn1 (stereo unspecified) | inconclusive: 28.2 µM [inhibitor, partial curve, poor fit] | 
27 | CCOC(=O)c1[nH]c2c(c1C)C(=O)CC(c1ccco1)C2 (stereo unspecified) | inconclusive: 28.2 µM [inhibitor, single point] | 
28 | COC(=O)c1[nH]c2ccc(C)cc2c1NC(=O)CN1CCN(c2ccc(F)cc2)CC1 | inconclusive: 20 µM [inhibitor, partial curve, poor fit] | 
29 | CC(=O)N1C(=O)/C(=C2\SC(=S)N(c3c(C)n(C)n(-c4ccccc4)c3=O)C2=O)c2ccccc21 | active: 3.98 µM | 
30 | COc1ccc(C(=O)N2CC=C(c3ccccc3)CC2)cc1S(=O)(=O)N1CCOCC1 | inconclusive: 3.98 µM [inhibitor, full curve, poor fit] | 
31 | CC(=O)Oc1cccc2c1C(=O)c1c(OC(C)=O)cc(C(=O)O)cc1C2=O | active: 3.55 µM | 
32 | CCCCN1CNC(=S)N(CCc2ccc(OCC)c(OCC)c2)C1 | inconclusive: 39.8 µM [inhibitor, partial curve, poor fit] | 
33 | CN1CCc2c(sc(NC(=O)C3CCCCC3)c2C(N)=O)C1 | inactive | 
34 | CCOC(=O)c1c(Nc2ccc(OCC)cc2)nnc(-c2ccccc2)c1-c1ccccc1 | inconclusive: 20 µM [inhibitor, partial curve, poor fit] | 
35 | Cc1ccn(C(CC(=O)c2ccc(Br)cc2)C(=O)O)n1 (stereo unspecified) | inconclusive: 6.31 µM [inhibitor, single point] | 
36 | COC(=O)C1=C(NC(C)=O)CCS1 | inconclusive: 39.8 µM [inhibitor, single point] | 
37 | COc1ccc(N2CC(C(=O)Nc3ccccc3C(=O)NCc3ccco3)CC2=O)cc1 (stereo unspecified) |  | inactive: -1.39% [at 12.7 µM]
38 | FC(F)Oc1ccc(-c2csc(=Nc3cccnc3)n2CC2CCCO2)cc1 (stereo unspecified) | inconclusive: 15.8 µM [inhibitor, partial curve, poor fit] | 
39 | COc1ccc(Cl)cc1NC(=O)c1c(NCc2cccnc2)sc2c1CCCC2 | inconclusive: 1.58 µM [inhibitor, full curve, poor fit] | 
40 | CC(C)(C)OC(=O)N1CCC(c2c(C(=O)NCCc3ccsc3)cnn2-c2ccc(F)cc2F)CC1 | inactive | 
41 | CCOC(=O)CCC(=O)Nc1ccc(S(=O)(=O)N2CCc3ccccc32)cc1 | inactive | 
42 | COC(=O)CCC(=O)OC1(C)C(=O)C2=CN(CCN3CCOCC3)C(c3ccc(OC)cc3)=CC2=C(Br)C1=O (stereo unspecified) | inactive | 
43 | CC(=O)c1sc(NC(=O)c2ccccc2F)nc1C | inconclusive: 89.1 µM [inhibitor, partial curve, poor fit] | 
44 | Cc1cc(-c2ccccc2)nc2cc(C(=O)Nc3ccc(Cl)c(Cl)c3)nn12 | inconclusive: 20 µM [inhibitor, partial curve, poor fit] | 

Row | SMILES | Potency | activity, negative = inhibition
45 | CC1(C)CC(NC(=S)NCc2ccco2)CC(C)(C)N1 | inconclusive: 89.1 µM [inhibitor, single point] | 
46 | C/C(CC1(O)C(=O)N(Cc2ccccc2)c2ccccc21)=N\O (stereo unspecified) | inactive | 
47 | COC(=O)c1cccc(NC(=O)c2cccc(N3C(=O)CCC3=O)c2)c1 | inconclusive: 31.6 µM [inhibitor, single point] | 
48 | O=C(Cc1ccc(F)cc1)Nc1nc(-c2ccc(F)cc2)cs1 | inactive | 
49 | O=C(O)c1cc(Cl)ccc1-c1ccc(/C=C/c2cc(C(F)(F)F)[nH]c(=O)n2)o1 | inconclusive: 31.6 µM [inhibitor, partial curve] | 
50 | CC(C)(C)c1ccc(C(=O)NC(=S)NNC(=O)COc2ccccc2)cc1 | active: 25.1 µM | 
51 | CCS(=O)(=O)N1CCN(c2ccc(C(=O)NC3C4CC5CC(C4)CC3C5)cc2[N+](=O)[O-])CC1 (stereo unspecified) | inconclusive: 39.8 µM [inhibitor, partial curve, poor fit] | 
52 | CCN1CCCC1CNC(=O)CCc1nnc(CCC2CCCCC2)o1 (stereo unspecified) | inconclusive: 50.1 µM [inhibitor, partial curve] | 
53 | O=C(COc1ccc(F)cc1)NNC(=O)c1cc2ccccc2oc1=O | inactive | 
54 | O=C(NCc1ccccc1Cl)C(=O)c1c[nH]c2ccccc12 | inconclusive: 50.1 µM [inhibitor, partial curve] | 
55 | Cc1[nH]n(-c2ccccc2)c(=O)c1C=Nc1cccc(F)c1 | active: 44.7 µM | 
56 | NS(=O)(=O)c1ccc(CNC(=O)CSc2nc3ccc(Cl)cc3[nH]2)cc1 | inconclusive: 89.1 µM [inhibitor, partial curve, poor fit] | 
57 | COc1ccccc1N1CCN(C(=O)C2CCN(S(=O)(=O)c3cccs3)CC2)CC1 | inactive | 
58 | COc1ccc(NC(=O)CSc2ccc3nnc(-c4cccnc4)n3n2)c(OC)c1 | inconclusive: 44.7 µM [inhibitor, partial curve] | 
59 | COc1ccccc1NS(=O)(=O)c1cc(NC(=O)CNC(=O)c2ccccc2)ccc1C | inactive | 
60 | CC(C)(C)C(=O)OCc1cn(-c2ccc(Cl)cc2)nn1 | inconclusive: 7.08 µM [inhibitor, single point] | 
61 | COc1ccc(Nc2nc(C)c3ccccc3n2)cc1 |  | inconclusive: -64.4% [inhibitor]
62 | Cc1nnc(N2C(=O)C(=O)/C(=C(/O)c3ccc4c(c3)OCCO4)C2c2ccc([N+](=O)[O-])cc2)s1 (stereo unspecified) | active: 28.2 µM | 
63 | C/C(CC(C)C)=N\NS(=O)(=O)c1ccc(C)c([N+](=O)[O-])c1 | active: 31.6 µM | 
64 | C=C[C@@H]1c2ccccc2N(S(=O)(=O)c2ccc(C)cc2)[C@H](c2ccc(C(F)(F)F)cc2)C1(C#N)C#N |  | inconclusive: -68.7% [inhibitor] [at 2.33 µM]
65 | C=CCN1c2ccccc2[C@]23C[C@@H](C(=O)OC)N(C(=O)c4cccs4)C2=NC(C(=O)OC)=C(C(=O)OC)[C@H]13 | inconclusive: 31.6 µM [inhibitor, single point] | 
66 | O=C1CCC2S/C(=C/Nc3ccc(C(F)(F)F)cc3)C(=O)N12 (stereo unspecified) | inconclusive: 56.2 µM [inhibitor, partial curve, poor fit] | 
